Laboratory results as given in patent US11786605B2, “Site specific antibody-drug conjugates with peptide-containing linkers” (Mersana Therapeutics, Inc., priority 2020, dated 2023).

What was measured:
[1] = Plasma exposure in cynomolgus monkey (Example 20); conditions: conjugated AF-HPA in plasma; female cynomolgus monkeys, 1 mg/kg by antibody, IV infusion over 30 minutes
Protocol: (§1) To determine the concentration of the free AF-HPA drug in a biological sample, an acidified sample was treated with ACN. The free drug was extracted and the ACN supernatant was analyzed. To determine the concentration of conjugated AF-HPA in a non-clinical sample, the sample was subjected to immunocapture using anti-IgG1 antibody-coated magnetic beads followed by exhaustive basic hydrolysis. The ACN supernatant containing the released AF-HPA drug was analyzed by LC-MS/MS. The total antibody concentration in non-clinical samples was measured by LC-MS/MS after immunocapture using an anti-IgG1 antibody via detection of a peptide sequence unique for the antibody after tryptic digestion. For clinical samples, the same procedure could be followed except that an anti-idiotype antibody would be used for immunocapture to avoid the interference of endogenous antibodies.
Female cynomolgus monkeys were injected intravenously with Conjugate 7 or Conjugate 11 at 1 mg/kg by antibody by IV infusion over 30 minutes (n=2 for each group). Plasma was collected at 1 hour, 8 hours, 24 hours, 48 hours, 96 hours, 168 hours, 240 hours, 288 hours, 336 hours, 456 hours, and 504 hours post dosing.

Plasma exposure in rat = conditions: conjugated AF-HPA in plasma; female Sprague-Dawley rats, IV bolus 0.34 mg/kg by payload
Protocol: as §1
Female Sprague-Dawley rats were inoculated by IV bolus into the tail vein with Conjugate 7 or Conjugate 11, at a dose of 0.34 mg/kg by payload (n=4 for each group). Plasma was collected at 10 minutes, 24 hours, 96 hours, 168 hours, 336 hours, and 504 hours post dosing.

Plasma exposure in mice = conditions: conjugated AF-HPA in plasma; OVCAR3 tumor-bearing mice, single IV dose 0.05 mg/kg by payload
Protocol: as §1
Female athymic nude mice were inoculated subcutaneously with OVCAR3 cells (n=4 for each group). Conjugate 7, Conjugate 11, or vehicle were dosed intravenously as a single dose on day 1 (mean tumor size of 174-176 mm^3 per group; range of 126-257 mm^3) at 0.05 mg/kg dose by payload. Plasma was collected at 10 minutes, 24 hours, 96 hours, 168 hours, 336 hours, and 504 hours post dosing.

OVCAR3 = assay: Cytotoxicity assay, OVCAR3, CellTiter-Glo; type: cell-based, human; conditions: after six days of treatment
Protocol: Conjugate 7 and Conjugate 11 were evaluated for their antiproliferation properties in the tumor cell line OVCAR3 in vitro using CellTiter-Glo® (Promega Corp). Cells were plated at a density of 5,000 cells per well in white-walled (volume) 96-well plate and allowed to adhere overnight at 37° C. in a humidified atmosphere of 5% CO2. Cells were incubated with increasing concentrations of the test articles (Conjugate 7 or Conjugate 11, or control Conjugate 10). Three days later, CellTiter-Glo® reagent was added to the wells at room temperature. The luminescent signal was measured after 10 minutes using a SpectraMax M5 plate reader (Molecular Devices). Dose-response curves were generated using Graphpad Prism software. EC50 values were determined from four-parameter curve fitting. Table X summarizes the EC50 values of Conjugate 7, Conjugate 11, and control Conjugate 10 after six days of treatment.

NaPi2b-derived peptide = target: T1, NaPi2b-derived peptide (Homo sapiens, UniProt O95436); assay: Binding kinetics to NaPi2b-derived peptide by Biolayer Interferometry; conditions: BLI, 25° C.
T1 construct: Genscript); purchased Genscript
T1 sequence (O95436 311-340 limits assumed): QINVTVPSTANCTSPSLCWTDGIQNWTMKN
Protocol: The binding kinetics of XMT-1535, Conjugate 7, and Conjugate 11 to immobilized NaPi2b-derived peptide antigen were determined by Biolayer Interferometry (BLI; Octet; ForteBio). Binding constants for XMT-1535, Conjugate 7, and Conjugate 11 were determined using standard Octet procedures (ForteBio). Biotinylated NaPi2b-derived peptide ([…]-biotin; Genscript) was immobilized to streptavidin octet sensors in kinetics buffer (10×). Sensors were then blocked in kinetics buffer (10×) with biocytin (50 μg/mL). Increasing concentrations of XMT-1535, Conjugate 7, or Conjugate 11 were then associated with immobilized peptide in kinetics buffer (10×).

OVCAR3 tumors = assay: Tumor growth response in OVCAR3 tumor-bearing mouse model; type: in vivo; conditions: OVCAR3, by Day 33, 0.1 mg/kg by payload
Protocol: Tumor growth inhibition (% TGI) was defined as the percent difference in median tumor volumes (MTVs) between treated and control groups. Tumor size was measured throughout each efficacy study to determine tumor growth inhibition (TGI).
Tumor size was measured at the times indicated in FIG. 7 using digital calipers. Tumor volume was calculated and was used to determine the delay in tumor growth. Mice were sacrificed when tumors reached a size of ≥1500 mm^3. Tumor volumes are reported as the mean±SEM for each group.
FIG. 7 provides the results for the tumor response in mice inoculated subcutaneously with OVCAR3 cells (n=8 for each group) after IV administration as a single dose on day 1 of Conjugate 7, Conjugate 11, or control Conjugate 10 at 0.025 mg/kg, 0.05 mg/kg or 0.1 mg/kg by payload, or vehicle.

B1: Conjugate 11: stochastic XMT-1535 conjugate made with the maleimido scaffold of Scaffold 6 (conjugate)
heavy: QVQLVQSGAEVVKPGASVKMSCKASGYTFTGYNIHWVKQAPGQGLEWIGAIYPGNGDTSYKQKFRGRATLTADTSTSTVYMELSSLRSEDSAVYYCARGETARATFAYWGQGTLVTVSSGASTKGPSVFPLAPSSKSTSGGTAALGCLVKDYFPEPVTVSWNSGALTSGVHTFPAVLQSSGLYSLSSVVTVPSSSLGTQTYICNVNHKPSNTKVDKRV[left out - human IgG1 Fc]
light: DIQMTQSPSSLSASVGDRVTITCSASQDIGNFLNWYQQKPGKTVKVLIYYTSSLYSGVPSRFSGSGSGTDYTLTISSLQPEDFATYYCQQYSKLPLTFGQGTKLELKRRTVAAPSVFIFPPSDEQLKSGTASVVCLLNNFYPREAKVQWKVDNALQSGNSQESVTEQDSKDSTYSLSSTLTLSKADYEKHKVYACEVTHQGLSSPVTKSFNRGEC
With B1 the AUCinf [1] was 2140 ng·days/mL, the Clobs [1] was 16.8 mL/day/kg and the Cmax [1] was 758 ng/mL. For the same molecule, the Volss [1] was 0.105 L/kg, the t1/2 [1] was 116 h and the AUCinf (Plasma exposure in rat) was 15600 ng·days/mL. For the same molecule, the Clobs (Plasma exposure in rat) was 21.8 mL/day/kg, the Cmax (Plasma exposure in rat) was 7950 ng/mL and the Volss (Plasma exposure in rat) was 0.125 L/kg. The t1/2 (Plasma exposure in rat) was 127 h, the AUCinf (Plasma exposure in mice) was 3680 ng·days/mL and the Clobs (Plasma exposure in mice) was 13.6 mL/day/kg. It also gave a Cmax (Plasma exposure in mice) of 1100 ng/mL, a Volss (Plasma exposure in mice) of 0.106 L/kg and a t1/2 (Plasma exposure in mice) of 140 h. The EC50 (OVCAR3) was 530 pM, the “koff, Mean Napi2b binding” value (NaPi2b-derived peptide) was 1.37e-05 s⁻¹ and the “kon, Mean Napi2b binding” value (NaPi2b-derived peptide) was 165000 M⁻¹ s⁻¹. The tumor regression (OVCAR3 tumors) was “majority of tumors regressed”.
